Data taken from the supplement of paper PMC3334620.
Over roughly 33,000 sequences, “E-score (-0.5 to 0.5)” has its median near -0.054; the highest 2% begin near 0.39. The list shows a part of the results.

target: Ylr278c (UniProt Q05854); experiment: PBM E-score (8-mer binding enrichment) (E-score (-0.5 to 0.5)); higher = stronger / more preferred TF binding; most listed sequences are background and not binding sites; conditions: protein concentration: 200 nM; construct: GST-DNA-binding domain
Outline: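 E-scores (a modified Wilcoxon-Mann-Whitney statistic) were assigned by the Universal PBM Analysis Suite to every ungapped eight-base word pooled with its reverse complement. The input came from universal all-10-mer Agilent arrays made double-stranded by primer extension and probed with GST-tagged yeast transcription factors at about 100-200 nM. Fluorescent anti-GST detected bound protein, and masliner normalised the scans.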

Sequence | PBM E-score
ATCTTCTA | -0.0443
ACGGAAGC | 0.199
CACCCTGC | -0.0141
GCATTCCC | 0.0781
TACCTCAA | -0.221
CGCCAGCG | -0.0683
TTGTGAAA | -0.235
ACATGATC | 0.0767
AAGGTTTA | -0.163
ACATACCC | -0.128
GCAAAGGA | 0.0145
ATCAACTA | -0.111
ATATTCCC | 0.277
GAATTGCC | 0.182
GACCAACC | -0.153
AAAGCAGA | -0.0727
CAAGAGGA | -0.324
AAGCGAAC | 0.00399
CGCGCTCA | -0.0872
ATACGACC | -0.192
CTGGGCTA | -0.0701
CTATTTCA | 0.0631
CGCCAGGA | -0.0548
AGCGACGG | 0.221
ACGAGCAG | -0.129

Sequence | PBM E-score
AAATCATA | -0.0761
ACCGTCGT | -0.0162
CATCTTCC | 0.22
ACATTGGC | -0.222
CACCGGAC | 0.439
CGGGCGAA | 0.171
GGGCGAAC | 0.0496
GTCGGTTA | 0.0468
CGGAGAGA | 0.402
CAGGATGG | -0.121
AGGCGAAA | -0.149
TAGCGATA | -0.13
AACCATGA | -0.00684
CAGGTTAC | -0.0975
AATGCATT | -0.0548
ATCCAACG | -0.126
GACGGGAC | 0.102
GAATCCAA | 0.138
AAGGAAAC | -0.0183
ACCCAGTG | -0.167
ACACACTA | -0.13
TAGCCTCA | -0.182
CTCAATCC | 0.0483
GGCGACTA | -0.0576
ACGCCAGC | -0.219

Sequence | PBM E-score
ATTTTACA | -0.181
CTCCCCTA | 0.117
CGCTTGCA | 0.113
CGCCGCAG | 0.264
ATGGGCCC | 0.135
CAACGGAC | 0.312
CTTCGTGC | -0.199
AGGGCGTC | 0.205
TCCCGACA | 0.249
AGACTTCA | -0.353
AATAAGAA | 0.0408
AAAGAATA | -0.135
GTCCTCTA | -0.303
AATTGGTA | -0.0558
CCATTAGC | -0.1
CGATTCAG | 0.043
GCTGTCTA | -0.154
AAGAGTCT | -0.107
CAAGGTCG | -0.0351
CGAGTTAA | 0.0748
CACTGAAG | 0.00425
CGGGCCTC | 0.197
AAAACACC | 0.142
ACGACAAA | 0.0515
CTTCAGCC | -0.257

Sequence | PBM E-score
ACGTAGCG | -0.127
TACCACAA | -0.101
AGCAGGCA | -0.167
AGTCGATC | 0.0408
TCCTAACA | -0.252
AAGTGAAG | -0.211
AAACGGCT | -0.0745
ATGGAGTG | -0.0888
ACTATCAT | 0.0132
AGGTTAGA | -0.0535
AGTTCACA | -0.134
TCAATCAA | -0.0345
CGTGCCTA | -0.2
CTCAGGCC | -0.121
ATCCCCCC | -0.298
ACCGCAAC | 0.236
CGTATATC | -0.0562
CGCCAGGC | 0.183
CTTTTCCA | -0.058
AGTACTCG | 0.0441
ACTCCGCT | 0.417
GCGTTATA | -0.147
GACTCCCA | -0.189
TACGTGCA | -0.068
CACATCAA | 0.0124

Sequence | PBM E-score
GGGTCGTA | -0.088
GACACGAA | -0.0323
AGCTCTAG | -0.138
GAATCAAC | 0.0316
CATGGGTC | -0.226
CCTTGAAG | -0.141
ACCCCATA | 0.082
AGAAGGAT | -0.269
ACAGTCCC | 0.127
TAGGGGAA | -0.264
GCATGCAC | -0.222
CCGAATCA | 0.177
GCCATTAA | -0.0731
ATCGTGAG | -0.00596
CGCGTCAA | -0.0645
ATACTAAA | 0.114
AGCCAAAC | 0.0822
CGAATCTC | 0.179
CTGCGTCC | -0.101
CAATCGGG | 0.219
GGCTTTAA | -0.0819
GAGATCTC | 0.162
ATCCTGTA | -0.236
AGCAAATG | -0.26
TAGAGACA | -0.175

Sequence | PBM E-score
GGCATTAC | 0.208
AGATGAGC | -0.243
TATGTAGA | -0.121
CCGAGCTA | 0.197
CACGAGGA | -0.193
CATGCAAG | -0.0348
ATGGTGGC | -0.152
GGAACGGA | 0.398
AAAAGTGA | -0.035
GAGTCATA | -0.0333
ATATTTAC | 0.104
GCACGCAA | -0.0636
CGCCTAGC | -0.105
CGCCTACA | -0.0496
AGTAACAA | -0.0481
CTACAGAG | -0.217
GGAATATA | 0.299
CGGCGGGC | 0.222
GGTAGTTA | 0.0587
ACGCTGGG | -0.159
GTGATTCA | -0.271
CGTACGAC | -0.152
CAGATCAC | 0.0365
GGAGTCGA | 0.0903
CGTAATTA | 0.0408

Sequence | PBM E-score
CGATGGAG | 0.288
AGGCAAGG | -0.186
CGGCAGGC | 0.102
ACATATAC | -0.0995
ACTGGGAT | -0.0964
ATGGACGG | 0.231
CAGTCCGC | 0.202
CACCGTGG | -0.115
AGCTAAAG | -0.246
GGCTGCGA | 0.0266
CATCAAAG | -0.134
AAACCTTA | -0.0533
AAACTATA | 0.0122
ACTACGTG | -0.179
ATGCGAGA | -0.0782
ACGACGCC | -0.108
CCGCTGCC | 0.138
CAAATACC | 0.0412
GCTGCTGA | -0.196
AGGTGCGA | -0.0144
AGAAAGAA | 0.0436
AACCCCAG | -0.0147
AACTGCGA | 0.148
ATTTTTCC | 0.209
CTGGAAGA | -0.121

Sequence | PBM E-score
AACCCCCG | 0.26
TAGATAGA | -0.171
TCATTCGA | -0.182
CCAACGCC | 0.136
ATTGCAAC | -0.0584
AAACCGGG | 0.215
CAAGCTGG | -0.115
CTAGTTCA | -0.225
AGGGATAG | -0.0362
AGATCGGC | 0.224
TACTGATA | -0.07
AGTCACAC | -0.173
CTTTTTGC | 0.0657
AGATGTAG | -0.0226
ATTTAGAC | -0.0454
GCGCGTAA | 0.0786
AAAGAACC | 0.0884
GCAGCGTA | -0.181
AAAGGCCT | -0.267
AACTTTCA | -0.121
GCTCTCCA | -0.269
CTGACCGA | -0.0157
AACTGGAC | -0.193
ATACGCAA | -0.132
ACTGGGGA | -0.0389

Sequence | PBM E-score
AGTCTTGA | -0.247
AAGAAGCG | -0.0347
CGATTCAC | -0.0556
AGGACACG | 0.0321
AATTATCA | -0.104
GAACGAGC | -0.0145
AGGGTCGC | 0.0614
AATAAGCA | -0.138
CCGGGCTC | 0.299
ACGCCAAG | -0.201
GCGGGAAC | 0.194
GATGGTGA | -0.0412
CCCACCAC | 0.0529
AACCTCCA | -0.222
GACTGCGA | 0.0431
CTAACGTC | -0.0586
CGCTGGAG | -0.0988
CACGAACG | -0.0613
ACCGCCTG | -0.0231
ATCTACCA | -0.113
GAGTGACA | -0.00079
GAGGACTA | -0.0911
ATGCCTAA | -0.184
ACTCGGGC | 0.146
ATTTCCCC | 0.127

Sequence | PBM E-score
GATGCACA | -0.128
GTTGTCGA | -0.129
ATGATGTA | -0.0547
AGCACATA | -0.0813
ATGCTTTC | -0.101
GGTATTTA | 0.144
AAAAGAAG | -0.0265
ACGGACCG | 0.335
GAACTTGA | 0.15
AGGTGGTG | -0.0566
CTATAGAA | -0.281
GATGATCC | 0.105
CTAACCGC | -0.0705
CCGGAGAG | 0.456
CTAACTCC | 0.291
TTATCGAA | 0.019
ATCGTAGA | -0.29
AACGAAAA | -0.118
AACGAGAA | -0.0628
CTTACGTA | -0.211
TAGTCGGA | 0.414
ATAAGAAA | -0.0158
ACTAACCG | 0.0907
ACCCGAGT | 0.181
TACCTACA | -0.161

Sequence | PBM E-score
AACTTTCC | 0.172
ACGGAGAC | 0.39
GCTAGCGA | -0.238
ACAAAGCG | -0.0993
GATTAACA | 0.0687
ACCGAACC | 0.129
ATGCTAGA | -0.33
GGCGTATA | -0.0615
AAGTTATA | -0.108
ACAGCCGT | -0.0703
CGTAGGAA | -0.0652
ATTAGCAG | -0.0479
AGTTTCGA | -0.0003
CCATTGGC | -0.196
TCATTAGA | -0.111
AGACCTGG | -0.147
ATTACTAC | -0.218
TCGCGCCA | 0.0183
ATGGATGG | -0.115
CGGCTCGA | 0.0612
ATTACCGG | 0.374
TCTAGTAA | 0.0314
CATCCTGG | -0.17
AGCGTGCC | -0.0339
ACTGGCTA | -0.169

Sequence | PBM E-score
CTCAGTAC | -0.0964
GAGTTCCA | 0.102
CGCCCCAA | 0.196
GCTGTCCC | -0.0872
CGTTTCTC | 0.0785
AGATAGGA | -0.0363
ACATCGAA | -0.0874
AGGAGTAG | -0.00627
CAACAAGA | -0.0902
AGGACCAA | -0.0013
AACTCCAA | -0.00212
CCACCTAC | -0.238
CATAAAAG | -0.233
ACTTACAT | -0.214
AGAAACAC | -0.0852
CCCGCTAC | 0.0482
AAAAGGAT | -0.136
GACGTCAC | -0.0267
ACCATAAC | -0.207
CCTCTGTC | -0.146
CACGTAAA | -0.241
ACTACCCT | -0.178
ACCCTTAA | -0.249
AGCTGCAC | -0.0789
GACTCCAC | -0.0152

Sequence | PBM E-score
CTAAGAAA | -0.172
CCAACCAC | 0.0508
AACTCACA | -0.153
TCGGGCCA | 0.0968
ACTCTTTG | -0.193
AGCGTTTG | -0.139
GGGCGGGA | 0.313
CGGAGTGC | 0.438
ACAGGGGT | -0.228
AGCAGCAA | -0.0384
GCAGGCAC | -0.167
ACGACCGT | -0.27
AGGATCGC | -0.0596
CGAGTACA | 0.0348
ACCAACAC | -0.124
CCGTCCAA | 0.124
AAAACAAC | -0.209
CAGGTTGA | -0.124
CCTCCATC | -0.232
CACATAGG | -0.127
AAAATAAG | -0.139
ATTGCTTC | 0.0619
CGAACGCA | 0.106
GCGCCTCA | 0.112
ATCGCGGC | 0.275

Sequence | PBM E-score
CCATGCAG | -0.192
ACATTTCT | 0.0273
AGGGCAAC | -0.0713
CACTCAAG | -0.321
AACCGGCA | 0.215
CCCTTAAA | -0.171
ATTTCCAG | 0.0814
CCCATATC | 0.021
GCTTCTAA | -0.246
CGCAACAA | 0.0125
CAAAGTTA | -0.0735
ATCTTAAT | -0.187
CTGGTTAC | -0.169
CAAGCGAA | -0.071
ATTTGGGG | 0.0181
TCGGCCCA | 0.186
GGCTCGGA | 0.38
GAGGCGAC | -0.103
AGCAACTA | -0.0189
